Data published in the supplement of paper PMC4604168 (melanoma cell lines).
The other results are listed elsewhere or left out. Repeats are few or missing, and single values can be far off.

Experiments:
Test in all cases: cell count relative to DMSO control; melanoma cells; higher = more viable cells
Settings in all cases: library dose: low library concentration; 72 h; first compound 0.4 µM
MZ2-MEL = test system: MZ2-MEL
MeWo = test system: MeWo
RPMI7951 = test system: RPMI7951
RVH-421 = test system: RVH-421
SkMel28 = test system: SkMel28
SkMel2 = test system: SkMel2
SkMel30 = test system: SkMel30
UACC62 = test system: UACC62
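Also: cell number obtained by counting DAPI-stained nuclei in high-throughput microscope images with image analysis software, screen run in 1,536-well plates.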

| SMILES | cell count (MZ2-MEL) | cell count (MeWo) | cell count (RPMI7951) | cell count (RVH-421) | cell count (SkMel28) | cell count (SkMel2) | cell count (SkMel30) | cell count (UACC62) |
| --- | --- | --- | --- | --- | --- | --- | --- | --- |
| C[C@@H](N)c1ccc(C(=O)Nc2ccnc3[nH]ccc23)cc1 + Cn1c(=O)n(-c2ccc(C(C)(C)C#N)cc2)c2c3cc(-c4cnc5ccccc5c4)ccc3ncc21 [NVP-BEZ235] (partner dose 0.004 µM) | 70.9% | 66.3% | 64.7% | 63.4% | 60.1% | 104% | 87.9% | 90% |
| Cn1sc(=O)n(Cc2ccccc2)c1=O + O=C(O)c1ccc2c(c1)nc(Nc1cccc(Cl)c1)c1ccncc12 [CX4945] (partner dose 0.4 µM) | 92.6% | 94.7% | 92.3% | 98% | 92.1% | 97.8% | 112% | 96.3% |
| Cn1sc(=O)n(Cc2ccccc2)c1=O + COc1ccc(Cl)c(Nc2nc3ccccc3nc2NS(=O)(=O)c2cccc(NC(=O)C(C)(C)N)c2)c1 [XL147] (partner dose 0.8 µM) | 88.5% | 88.9% | 83.8% | 96.9% | 94.3% | 94.4% | 95.4% | 92.6% |
| CCCCCCCCCCCCCCCCCCOP(=O)([O-])OC1CC[N+](C)(C)CC1 [Perifosine] + O=C(/C=C/c1cccnc1)NCCCCC1CCN(C(=O)c2ccccc2)CC1 [FK866] (partner dose 0.01 µM) | 45.5% | 99.9% | 113% | 73.3% | 95.7% | 46.2% | 96.4% | 79.9% |
| C[C@@H](N)c1ccc(C(=O)Nc2ccnc3[nH]ccc23)cc1 + C[C@]1(O)C[C@@H](c2nc(-c3ccc4ccc(-c5ccccc5)nc4c3)c3c(N)nccn32)C1 [OSI906] (partner dose 0.4 µM) | 61.2% | 66.3% | 79.1% | 73.3% | 103% | 83.2% | 57.9% | 78.4% |
| C[C@@H](N)c1ccc(C(=O)Nc2ccnc3[nH]ccc23)cc1 + C#Cc1cccc(Nc2ncnc3cc(OCCOC)c(OCCOC)cc23)c1 [erlotinib] (partner dose 0.8 µM) | 69.7% | 79.8% | 70.3% | 81.9% | 75.3% | 114% | 102% | 84.8% |
| Cn1sc(=O)n(Cc2ccccc2)c1=O + OCc1c[nH]c2ccccc12 [Indole-3-carbinol] (partner dose 0.8 µM) | 110% | 103% | 126% | 122% | 111% | 107% | 89.6% | 94.1% |
| CCCCCCCCCCCCCCCCCCOP(=O)([O-])OC1CC[N+](C)(C)CC1 [Perifosine] + CC(=O)O[C@@]12CO[C@@H]1C[C@H](O)[C@@]1(C)C(=O)[C@H](O)C3=C(C)[C@@H](OC(=O)[C@H](O)[C@@H](NC(=O)OC(C)(C)C)c4ccccc4)C[C@@](O)([C@@H](OC(=O)c4ccccc4)[C@H]21)C3(C)C [Docetaxel] (partner dose 0.0001 µM) | 65.5% | 51.8% | 33.4% | 71.9% | 34.3% | 45% | 38.7% | 55.4% |
| C[C@@H](N)c1ccc(C(=O)Nc2ccnc3[nH]ccc23)cc1 + NC(=O)c1ccc(N(C(N)=O)c2c(F)cccc2F)nc1-c1ccc(F)cc1F [VX702] (partner dose 0.4 µM) | 76.7% | 77.6% | 71.7% | 63.4% | 79.8% | 98.7% | 128% | 100% |
| CCCCCCCCCCCCCCCCCCOP(=O)([O-])OC1CC[N+](C)(C)CC1 [Perifosine] + CS(=O)(=O)CCNCc1ccc(-c2ccc3ncnc(Nc4ccc(OCc5cccc(F)c5)c(Cl)c4)c3c2)o1 [lapatinib] (partner dose 0.8 µM) | 97.5% | 96.5% | 90.6% | 102% | 101% | 104% | 90.1% | 111% |
| CCCCCCCCCCCCCCCCCCOP(=O)([O-])OC1CC[N+](C)(C)CC1 [Perifosine] + O=C(O)[C@@H]1[O][Sb](=[O])([O][Sb]2(=[O])[O][C@H]([C@H](O)CO)[C@H](O)[C@H](C(=O)O)[O]2)[O][C@H]([C@H](O)CO)[C@@H]1O [stibogluconate] (partner dose 2 µM) | 98.7% | 105% | 87.9% | 83.4% | 86.2% | 97.7% | 99.2% | 92.6% |
| CCCCCCCCCCCCCCCCCCOP(=O)([O-])OC1CC[N+](C)(C)CC1 [Perifosine] + C#Cc1cccc(Nc2ncnc3cc(OCCOC)c(OCCOC)cc23)c1 [erlotinib] (partner dose 0.8 µM) | 91.3% | 88.4% | 54.7% | 86.9% | 105% | 105% | 85.2% | 69.4% |
| Cn1sc(=O)n(Cc2ccccc2)c1=O + Clc1ccc(Nc2nnc(Cc3ccncc3)c3ccccc23)cc1 [vatalanib] (partner dose 2 µM) | 101% | 80.5% | 106% | 122% | 92.9% | 95.9% | 85.9% | 85.2% |
| CCCCCCCCCCCCCCCCCCOP(=O)([O-])OC1CC[N+](C)(C)CC1 [Perifosine] + Nc1nc(F)nc2c1ncn2[C@@H]1O[C@H](CO)[C@@H](O)[C@@H]1O [fludarabine] (partner dose 0.2 µM) | 99.8% | 43% | 82.7% | 107% | 89.5% | 16.2% | 17.5% | 85.1% |
| Cn1sc(=O)n(Cc2ccccc2)c1=O + CO[C@H]1C[C@@H]2CC[C@@H](C)[C@@](O)(O2)C(=O)C(=O)N2CCCC[C@H]2C(=O)O[C@H]([C@H](C)C[C@@H]2CC[C@@H](OCCO)[C@H](OC)C2)CC(=O)[C@H](C)/C=C(\C)[C@@H](O)[C@@H](OC)C(=O)[C@H](C)C[C@H](C)/C=C/C=C/C=C/1C [everolimus] (partner dose 0.02 µM) | 79.4% | 77.7% | 86.2% | 75.4% | 64.7% | – | 79.1% | 64% |
| CCCCCCCCCCCCCCCCCCOP(=O)([O-])OC1CC[N+](C)(C)CC1 [Perifosine] + Cn1c(=O)n(-c2ccc(C(C)(C)C#N)cc2)c2c3cc(-c4cnc5ccccc5c4)ccc3ncc21 [NVP-BEZ235] (partner dose 0.004 µM) | – | 94.9% | 96.5% | 84.5% | 86% | 92.2% | 99.8% | 94.6% |
| C[C@@H](N)c1ccc(C(=O)Nc2ccnc3[nH]ccc23)cc1 + OCc1c[nH]c2ccccc12 [Indole-3-carbinol] (partner dose 0.8 µM) | 71.2% | 85.3% | 70% | 58.7% | 77.7% | 94.7% | 116% | 83.3% |
| CCCCCCCCCCCCCCCCCCOP(=O)([O-])OC1CC[N+](C)(C)CC1 [Perifosine] + NC1(c2ccc(-c3nc4ccn5c(=O)[nH]nc5c4cc3-c3ccccc3)cc2)CCC1 [MK2206] (partner dose 0.4 µM) | 89.1% | 80.7% | 83.6% | 81.9% | 67.1% | 79.5% | 95.4% | 69% |
| CCCCCCCCCCCCCCCCCCOP(=O)([O-])OC1CC[N+](C)(C)CC1 [Perifosine] + CC(C)C[C@H](NC(=O)[C@H](Cc1ccccc1)NC(=O)c1cnccn1)B(O)O [Bortezomib] (partner dose 0.001 µM) | 107% | 95.5% | 42.5% | 75.7% | 83.5% | 74.7% | 76.4% | 95.9% |
| Cn1sc(=O)n(Cc2ccccc2)c1=O + O=C(O)[C@@H]1[O][Sb](=[O])([O][Sb]2(=[O])[O][C@H]([C@H](O)CO)[C@H](O)[C@H](C(=O)O)[O]2)[O][C@H]([C@H](O)CO)[C@@H]1O [stibogluconate] (partner dose 2 µM) | – | 104% | 77.4% | 77.3% | 98.5% | – | 107% | 79.8% |
| Cn1sc(=O)n(Cc2ccccc2)c1=O + C=CCNC1=C2C[C@@H](C)C[C@H](OC)[C@H](O)[C@@H](C)/C=C(\C)[C@H](OC(N)=O)[C@@H](OC)/C=C\C=C(/C)C(=O)NC(=CC1=O)C2=O [Tanespimycin] (partner dose 0.002 µM) | – | 96.7% | 96.9% | 106% | 79.8% | – | 86.5% | 110% |
| C[C@@H](N)c1ccc(C(=O)Nc2ccnc3[nH]ccc23)cc1 + CO[C@H]1C[C@@H]2CC[C@@H](C)[C@@](O)(O2)C(=O)C(=O)N2CCCC[C@H]2C(=O)O[C@H]([C@H](C)C[C@@H]2CC[C@@H](OCCO)[C@H](OC)C2)CC(=O)[C@H](C)/C=C(\C)[C@@H](O)[C@@H](OC)C(=O)[C@H](C)C[C@H](C)/C=C/C=C/C=C/1C [everolimus] (partner dose 0.02 µM) | 63.9% | 59.9% | 49.6% | 47.5% | 35.6% | – | 87.5% | 60.5% |
| C[C@@H](N)c1ccc(C(=O)Nc2ccnc3[nH]ccc23)cc1 + Cn1c(Nc2ccc(C(F)(F)F)cc2)nc2cc(Oc3ccnc(-c4ncc(C(F)(F)F)[nH]4)c3)ccc21 [CHIR265] (partner dose 0.08 µM) | 64% | 74.2% | 61% | 66.1% | 49.6% | 89.1% | 84.4% | 63.1% |
| C[C@@H](N)c1ccc(C(=O)Nc2ccnc3[nH]ccc23)cc1 + CN(c1ncccc1CNc1nc(Nc2ccc3c(c2)CC(=O)N3)ncc1C(F)(F)F)S(C)(=O)=O [PF562271] (partner dose 0.08 µM) | – | 72.6% | 58.9% | 80.3% | 72.6% | 84.2% | 107% | 89% |
| C[C@@H](N)c1ccc(C(=O)Nc2ccnc3[nH]ccc23)cc1 + C[C@]1(c2nc3c(C(N)=O)cccc3[nH]2)CCCN1 [Veliparib] (partner dose 1.4 µM) | 70.6% | 71.1% | 80.1% | 73.3% | 61.6% | – | 113% | 82.8% |
| C[C@@H](N)c1ccc(C(=O)Nc2ccnc3[nH]ccc23)cc1 + C=CCNC1=C2C[C@@H](C)C[C@H](OC)[C@H](O)[C@@H](C)/C=C(\C)[C@H](OC(N)=O)[C@@H](OC)/C=C\C=C(/C)C(=O)NC(=CC1=O)C2=O [Tanespimycin] (partner dose 0.002 µM) | 83.9% | 78.3% | 78.6% | 88.5% | 83.7% | 102% | 121% | 83.7% |
| C[C@@H](N)c1ccc(C(=O)Nc2ccnc3[nH]ccc23)cc1 + CCCS(=O)(=O)Nc1ccc(F)c(C(=O)c2c[nH]c3ncc(Cl)cc23)c1F [PLX4720] (partner dose 0.08 µM) | 62.9% | 66.2% | 70.6% | 55.5% | 69.9% | 91.2% | 77.3% | 68.4% |
